Results published in PMC6919601, “Identification of Plasmodium dipeptidyl aminopeptidase allosteric inhibitors by high throughput screening” (PLoS ONE, 2019).
The whole screen tested about 110,000 compounds, of which about 230 (0.21%) showed an effect of 50% or more. The list shows a part of the results.

biological target: DPAP1 (Plasmodium falciparum, UniProt Q8IIJ9); experiment: primary screen, percent inhibition; read by cleavage of a fluorogenic dipeptide substrate; higher = more effect of the substance; set-up: species or system P. falciparum D10 trophozoite lysates; single well
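Also: 30 min substrate incubation versus DMSO and 10 µM JCP410 controls.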

Chain of DPAP1 (Q8IIJ9 whole entry, looked up): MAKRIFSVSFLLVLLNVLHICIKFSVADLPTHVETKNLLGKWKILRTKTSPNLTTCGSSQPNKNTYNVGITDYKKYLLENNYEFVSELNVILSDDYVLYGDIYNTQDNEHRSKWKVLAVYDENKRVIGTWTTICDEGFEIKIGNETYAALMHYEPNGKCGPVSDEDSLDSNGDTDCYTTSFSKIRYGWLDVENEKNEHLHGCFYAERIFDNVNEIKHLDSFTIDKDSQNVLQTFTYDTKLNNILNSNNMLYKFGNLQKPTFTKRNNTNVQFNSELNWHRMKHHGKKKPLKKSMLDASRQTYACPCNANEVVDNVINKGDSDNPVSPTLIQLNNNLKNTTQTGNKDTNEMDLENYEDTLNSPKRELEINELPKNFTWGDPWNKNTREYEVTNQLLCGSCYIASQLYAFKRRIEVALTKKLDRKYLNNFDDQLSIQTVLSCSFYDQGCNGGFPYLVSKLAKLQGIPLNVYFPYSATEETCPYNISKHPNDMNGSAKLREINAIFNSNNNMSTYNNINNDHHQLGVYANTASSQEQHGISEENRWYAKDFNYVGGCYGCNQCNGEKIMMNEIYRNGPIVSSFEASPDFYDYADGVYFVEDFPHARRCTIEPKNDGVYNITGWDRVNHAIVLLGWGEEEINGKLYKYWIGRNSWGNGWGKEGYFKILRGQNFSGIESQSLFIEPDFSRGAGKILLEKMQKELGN

| SMILES | % Inhibition @ 10 uM [%] |
| --- | --- |
| O=C(Nc1ncccn1)c1cc(-c2cccc(Br)c2)nc2ccccc12 | -2.19 |
| Oc1cc(-c2ccccc2)nc(S)n1 | 3.16 |
| COc1cc(C2CC(=O)NC(SCC(N)=O)=C2C#N)cc(Br)c1O (centres unmarked) | 0.673 |
| CC(=O)c1cccc(NC(=O)c2ccccc2C(=O)O)c1 | -0.795 |
| COc1cccc(/C=C/c2ccnc(NS(=O)(=O)c3ccc(N)cc3)n2)c1 | -1.29 |
| Cc1cccc(OCCCCCN2CCCCC2)c1 | -2.28 |
| CC(=O)/C=C1\NC(C)(C)Cc2ccccc21 | 5.2 |
| CCCCOC(=O)C1=C(C)NC(=O)NC1c1ccc(Cl)cc1 (centres unmarked) | 0.162 |
| COc1cc(CNc2ccc(F)cc2)cc(Cl)c1OCC(=O)NC(C)(C)C | -1.82 |
| CCc1ccccc1NC(=O)c1cc2nc(C(F)F)cc(C(F)F)n2n1 | -1.36 |
| COc1ccc(C(=O)Nc2ccccc2C(=O)O)cc1OC | 3.32 |
| Cc1cc(C(F)(F)F)nn1CC(=O)Nc1sc2c(c1C(N)=O)CCCCC2 | 54.5 |
| COc1ccc(CCNC(=O)c2cc3c(O)nc4ccccc4c3s2)cc1OC | 7.59 |
| CC(C)(C)C(=O)Nc1ccccc1C(=O)Nc1cccnc1 | -3.09 |
| Cc1ccc(S(=O)(=O)N2CCC(C(=O)NC3CCc4ccccc43)CC2)cc1 (centres unmarked) | 2.29 |
| COc1ccc(CN2CCN(Cc3cc(OC)ccc3O)CC2)cc1 | -1.6 |
| O=C(CN(Cc1ccc(Br)cc1)S(=O)(=O)c1ccccc1)Nc1ccccc1F | -4.43 |
| S=C(NC12CC3CC(CC(C3)C1)C2)N1CCOCC1 | 1.54 |
| O=C(c1ccc(Cn2cc(Br)cn2)cc1)N1CCN(c2ccccc2)CC1 | 1.27 |
| Cc1ccc2occ(CC(=O)N(Cc3cccs3)C3CCS(=O)(=O)C3)c2c1 (centres unmarked) | 4.18 |
| CSc1ccc(CCNC(=O)CCCn2ccc3cc(S(=O)(=O)N4CCCC4)ccc32)cc1 | -2.68 |
| Cc1nnc(N2CCC(C(=O)NC(C)c3ccccc3)CC2)c2nn(-c3ccc(Cl)cc3)c(C)c12 (centres unmarked) | -4.18 |
| Nc1[nH]ncc1-c1ccc(F)cc1 | -4.74 |
| CCCCOc1ccc(C(=O)Nc2ccc(CN3CCOCC3)cc2)cc1 | 4.03 |
| COC(=O)c1ccc2c(c1)sc1nc(-c3ccc(Br)cc3)cn12 | 3.39 |
| Cc1cc(C)nc(NS(=O)(=O)c2ccc(N/C=C\C(=O)c3ccc4ccccc4c3)cc2)n1 | 0.317 |

| SMILES | % Inhibition @ 10 uM [%] |
| --- | --- |
| COC(=O)C1=C(O)/C(=C\c2ccc(C)cc2)N=C1C | 3.57 |
| Brc1ccc(N2COc3ccc4ccccc4c3C2)cc1 | 1.64 |
| Cc1sc2nc(SCC(=O)N3CCOCC3)n(-c3ccc(F)cc3)c(=O)c2c1C | 2.46 |
| CS(=O)(=O)N(CC(=O)N1CCN(c2ccccc2)CC1)C1CCCCC1 | -2.32 |
| Cc1nnc(N2CCCC(C(=O)N3CCN(C)CC3)C2)c2nn(-c3ccccc3)c(C)c12 (centres unmarked) | -0.696 |
| Cc1c(CC(=O)NCCc2ccccc2F)c(=O)oc2cc(O)ccc12 | -2.57 |
| Clc1ccc(-c2noc(-c3ccc(-c4ccccc4)cc3)n2)cc1 | 1.08 |
| CCOC(=O)C1=CN(Cc2ccc(OC)cc2)C=C(C(=O)OCC)C1c1cc(OC)ccc1OC | 0.219 |
| COc1ccccc1C(=O)Nc1ccccc1C(=O)NC(C)c1ccccc1 (centres unmarked) | -3.92 |
| Cc1cccc(C(C2=C(O)CCCC2=O)C2=C(O)CCCC2=O)c1 | -4.62 |
| COc1ccc(C(=O)NCc2c(CC(C)C)oc(C)c2C(=O)O)cc1 | -0.403 |
| CC(CNC(=O)c1cccs1)OC12CC3CC(CC(C3)C1)C2 (centres unmarked) | 0.9 |
| CCOC(=O)C1=C(NC(=O)c2ccc(C)cc2)S/C(=C\c2ccc(OCC)cc2OCC)C1=O | 6.28 |
| CC1CCC(NCC(C)(C)CN(C)C)CC1 (centres unmarked) | -0.303 |
| Cc1cc(C)c(C#N)c(SCC(=O)Nc2ccc(Cl)c(Cl)c2)n1 | -0.736 |
| CCC(=O)Nc1ccc(S(=O)(=O)Nc2ccc(C)cc2C)cc1 | -4.52 |
| COc1ccc(-c2noc(CSc3nnc(C)n3-c3cccc(C)c3)n2)cc1OC | 2.89 |
| CCC(C)NC(=O)c1oc2ccc3c(c2c1C)C(=O)CC1(CCCC1)O3 (centres unmarked) | 3.87 |
| CCc1ccc(Oc2nc3c(C)cccn3c(=O)c2/C=C(\C#N)C(=O)NCCOC)cc1 | 3.63 |
| CCOC(=O)c1c(NC(=O)CCc2ccc(CC)o2)sc(C)c1C | 9.61 |
| COCCN1C(=O)C(O)=C(C(=O)c2ccc3c(c2)CC(C)O3)C1c1cccc(OC)c1 (centres unmarked) | 2.79 |
| CCOc1ccccc1CNC(=O)c1ccc(CS(=O)c2ccccc2C)o1 (centres unmarked) | 3.36 |
| CC(C)NC(=O)c1c(NC(=O)c2cccs2)sc2c1CCCC2 | 0.392 |
| C/C=C/C(=O)Nc1ccc(NC(C)=O)cc1 | -1.86 |
| CCN1C(=O)/C(=C/c2cccs2)S/C1=N/c1ccc(OC)cc1 | -9.45 |
| Cc1cccc(CCNc2cnn(C34CC5CC(CC(C5)C3)C4)c(=O)c2Cl)c1 | 1.89 |

| SMILES | % Inhibition @ 10 uM [%] |
| --- | --- |
| COC(=O)NCCc1cc(OC)c(OC)cc1S(=O)(=O)N1CCOCC1 | 3.68 |
| O=C(O)C1Nc2ccc(F)cc2C2C=CCC12 (centres unmarked) | 4.26 |
| CCc1ccc(/C=C2/C(=O)NC(=O)N(c3ccc(OC)cc3)C2=O)cc1 | 4.65 |
| Cc1ccc(NS(=O)(=O)c2cc(Cl)ccc2Cl)cc1C | -3.44 |
| COc1ccc(OC)c(NC(=O)c2ccc(C(F)(F)F)cc2)c1 | -4.66 |
| Cc1cccc(NC(=O)CN(c2cccc(Cl)c2C)S(C)(=O)=O)c1 | -3.63 |
| COc1ccc(CCNCc2cccn2-c2c(C(=O)O)cnn2-c2ccccc2)c(OC)c1 | 1.63 |
| Cc1ccccc1OCC(=O)Nc1ccc(F)cc1 | 0.247 |
| CC(=O)Nc1cccc(NC(=O)c2ccc(N(C)C)cc2)c1 | -3.92 |
| CSCCCN1CCN(CCO)CC1 | 0.472 |
| COc1ccc(/C=C/C(=O)c2ccc3ccccc3c2O)cc1CN1CCOCC1 | -3.74 |
| COCC/N=c1/c(-c2ccc(C)cc2)c(O)c1=O | -1.15 |
| COc1ccc(Nc2ccc(C(F)(F)F)cc2[N+](=O)[O-])cc1 | -0.192 |
| Cc1ccccc1Cn1ccc(NC(=O)c2nc3ncccn3n2)n1 | 1.72 |
| Cc1cc(-c2ccc(C)c(S(=O)(=O)N(C)Cc3ccco3)c2)on1 | -0.795 |
| CCN(CC)CCCNCc1ccc(F)cc1Cl | -1.34 |
| CNC(=O)C1=C(C)Nc2nc3ccccc3n2C1c1ccc(F)cc1 (centres unmarked) | 2.5 |
| CC(C)C(NS(=O)(=O)c1ccc(Br)s1)C(=O)O (centres unmarked) | -0.458 |
| O=C(c1ccco1)n1nc(-c2ccccc2)nc1NCc1ccccc1 | 5.5 |
| O=C1C(=Cc2ccco2)C(=O)N(c2ccccc2)C(=S)N1c1ccccc1 | -5.94 |
| COc1ccccc1CCNC1CCC(C(C)(C)C)CC1 (centres unmarked) | -3.8 |
| O=P(O)(CN1CCOCC1)C1Cc2ccccc2C1 | -5.38 |
| COCC(C)NCc1cc(Br)ccc1OC (centres unmarked) | -5.16 |
| CCC(C)N(CCCNC(=O)Cn1nc(Cc2cccnc2)c2ccccc2c1=O)Cc1ccco1 (centres unmarked) | -2.16 |
| CC(C)(C)C(=O)NCCc1nc2ccccc2n1Cc1ccccc1F | -0.58 |
| COc1ccc(CNc2nc(-c3ccco3)nn2C(=O)C(C)C)cc1 | -1.47 |

| SMILES | % Inhibition @ 10 uM [%] |
| --- | --- |
| COc1ccc(CCCC(=O)Nc2cc(Cl)ccc2OC)cc1 | -4.48 |
| O=C(Nc1nc(-c2ccccc2)cs1)c1sc2cc(F)ccc2c1Cl | 0.986 |
| O=C(c1cc2c(s1)-c1ccccc1S(=O)(=O)C2)N1CCN(C2CCCCC2)CC1 | -4.23 |
| CC(C)CCN1CC(C(=O)NCc2ccccc2Cl)CC1=O (centres unmarked) | 0.514 |
| O=C(Cc1c(C(=O)O)[nH]c2ccc(Cl)cc12)NCC1(c2ccccc2)CCCC1 | 22.6 |
| Cc1coc2c1c(C)cc1oc(=O)c(CC(=O)NCc3ccccc3)c(C)c12 | 7.17 |
| Cc1nc2ncnn2c(C)c1CCC(=O)NCCC(C)C | 1.26 |
| O=C(NCCCc1nc2ccccc2n1CCOc1ccccc1)c1ccco1 | -2.99 |
| CN1C(=O)CCC1(C(=O)O)c1ccccc1 (centres unmarked) | 0.0538 |
| Cc1c(C(c2ccccc2)c2c(C)n(C)n(-c3ccccc3)c2=O)c(=O)n(-c2ccccc2)n1C | -6.52 |
| Cc1ccc(CNC(=O)CN(C)S(=O)(=O)c2ccc(F)cc2)cc1 | 4.75 |
| Cc1nnc(NCCC(C)C)c2c1nnn2Cc1ccccc1Cl | 0.00706 |
| COc1ccccc1/C=C(/NC(=O)c1ccccc1Cl)C(=O)N1CCOCC1 | 4.01 |
| COc1ccc(CN2CCN(c3cccc(Cl)c3)CC2)cc1OC | 2.92 |
| CCc1ccc(CNC(=O)C2CCN(c3nc4ccccc4o3)CC2)cc1 | 2.05 |
| CCc1cc(-c2[nH]nc(C)c2-c2ccc3c(c2)OCCO3)c(O)cc1OC | 3.93 |
| Cc1ccc(NC(=O)COc2ccc(C#N)cc2)c(Br)c1 | -2.29 |
| Cc1nc2c(c(C)c1CCC(=O)N1CC(C)CC(C)C1)c(=O)n(C)c(=O)n2C (centres unmarked) | 3.75 |
| CCOC(=O)c1cc(-c2ccc(OC)c(S(=O)(=O)NC3CCCCCC3)c2)on1 | -1.19 |
| Cc1ccc(/C=C2\N=C(c3ccc(Cl)cc3Cl)OC2=O)o1 | 2.81 |
| O=C(NCC(O)c1ccccc1)c1ccccc1 (centres unmarked) | 5.53 |
| CNCc1cc2ccccc2o1 | -2.36 |
| O=C(c1ccc(C(F)(F)F)cc1)N1CCOCC1 | -8.85 |
